Test results: PubChem BioAssay AID1345082 (National Center for Advancing Translational Sciences (NCATS), 2018)
In all, about 94,000 compounds went through this assay and about 4,000 (4.3%) were called active. This list was built around the results that the source calls inconclusive (neither active nor inactive); the mix of calls is not that of the screen. The call rests on the fitted dose curve; in most records, active means well fitted inhibition curve with a large enough effect; inconclusive means small, poorly fitted or top-dose-only effect; inactive means no such curve, though single readings can be large or run the other way. Potencies beside an inconclusive call are fits to weak or partial responses and may not hold up.

Assay: Cytotoxic Profiling in NIH 3T3 Cell Line of Diverse Libraries Using Quantitative High-Throughput Screening; further: nearly all actives have a fitted effect of over 55% in size
Conditions: NIH 3T3 viability, CellTiter-Glo ATP luminescence, 48-72 h; activity change, negative = cytotoxicity: at 96.7 µM (top of the series) unless noted; series mostly up to 96.7 µM
Outline: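 Cytotoxicity was measured by CellTiter-Glo ATP luminescence after 48 or 72 h compound exposure at 37 °C. Mouse NIH 3T3 fibroblasts were seeded at 400 cells/well and dosed by 23 nL pin transfer.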
On the % scale 0 is the no-effect control and ±100 the full control effect; potency means the concentration at half of the fitted maximal effect; tags describe the fitted curve by direction and shape.

| Structure (SMILES) | Potency | activity change, negative = cytotoxicity | outcome |
| --- | --- | --- | --- |
| COc1ccc(CCNC(=O)c2cc(-c3ccccc3F)nc3c2cnn3C)cc1 | inconclusive: 39.8 µM [inhibitor, partial curve, poor fit] |  |  |
| CCc1cc(=O)n(CC(=O)Nc2cccc(Br)c2)c(N2CCOCC2)n1 | inconclusive: 31.6 µM [inhibitor, partial curve] |  |  |
| O=C(NCCc1cccc(F)c1)C1CN(C2CCCCC2)C(=O)N1 (stereo not given) |  | inactive: -11.8% [at 138 µM] |  |
| COc1ccc(OCc2nc(C)c(CCO)c(=O)n2CC(=O)Nc2ccc(C)c(C)c2)cc1 |  | inactive: -24.6% |  |
| Cc1ccc(CN2CCCC(Cc3ncc(C)n3Cc3ccccc3)C2)o1 (stereo not given) | inconclusive: 44.7 µM [inhibitor, partial curve, poor fit] |  |  |
| COc1cccc(NC(=O)Cn2c(C)ccc(NS(=O)(=O)c3ccccc3)c2=O)c1 |  | inactive: -0.772% |  |
| O=C(NCc1ccncc1)C1CN(Cc2ccccc2Br)CC12CCOCC2 (stereo not given) |  | inactive: -13.4% |  |
| O=C(c1ccc(Cl)nc1)N1CCCC(C(=O)N2CCC(c3nc4ncccc4[nH]3)C2)C1 (stereo not given) |  | inactive: -8.41% |  |
| CC(C)c1ccc(S(=O)(=O)N2C[C@@H](F)C[C@H]2C(=O)N2CCc3ccccc3C2)cc1 |  | inactive: -19.3% |  |
| CN1N=C(C(=O)N2CCCC(CCc3ccc(F)c(F)c3)C2)CCC1=O (stereo not given) | inconclusive: 79.4 µM [inhibitor, partial curve] |  |  |
| CC(C)n1nc(OC(C)(C)C(=O)NCCc2ccccn2)c2cc(CN3CCOCC3)ccc21 | inconclusive: 70.8 µM [inhibitor, single point] |  |  |
| O=C(NCC1CC1)c1ccnc(-c2nnc3ccc(Nc4ccccc4)nn23)c1 | inconclusive: 35.5 µM [inhibitor, full curve] |  |  |
| O=C(Nc1ccc(F)cc1)c1nc2sccn2c1-c1ccc(C(F)(F)F)cc1 | inconclusive: 50.1 µM [inhibitor, partial curve, poor fit] |  |  |
| CC(C)=CCn1c(-c2cc(C)oc2C)cn2cc(C(=O)N3CCCC3C)nc2c1=O (stereo not given) | inconclusive: 79.4 µM [inhibitor, partial curve] |  |  |
| Cc1nc(CN2Cc3nc(Oc4ccccc4)ccc3OCC2=O)cs1 | inconclusive: 79.4 µM [inhibitor, partial curve] |  |  |
| O=C(NCC(=O)N1CCOCC1)c1cccc(-c2ccc(C(F)(F)F)cc2)c1 | inconclusive: 11.2 µM [inhibitor, full curve] |  |  |
| COc1cccc(C(=O)N2CCc3nc(C(C)C)nc(-c4ccc(O)cc4)c3CC2)c1 | inconclusive: 50.1 µM [inhibitor, partial curve, poor fit] |  |  |
| COc1ccc2nc([C@H]3CCN(Cc4ccc(C(=O)O)cc4)C3)[nH]c2c1 |  | inactive: -4.99% [at 174 µM] |  |
| CCN1c2cc(C(=O)Nc3ccc(F)cc3)ccc2C(=O)N2CCCC21 (stereo not given) |  | inactive: -21% |  |
| Cc1cccc(-c2nc(C3CC(=O)N(c4ccc(F)c(Cl)c4)C3)no2)c1 (stereo not given) | inconclusive: 50.1 µM [inhibitor, partial curve, poor fit] |  |  |
| N#CC1CCN(C(=O)CNC(=O)c2ccc(-c3cnc4ccccc4c3)cc2)CC1 | inconclusive: 79.4 µM [inhibitor, partial curve, poor fit] |  |  |
| Cc1ccc(OCc2nc(C3CCCCN3C(=O)c3cc(F)ccc3F)no2)cc1 (stereo not given) | inconclusive: 28.2 µM [inhibitor, full curve] |  |  |
| Cc1cccc(OCCc2noc(C3CN(C(=O)Nc4ccc5c(c4)OCCO5)C3)n2)c1 | inconclusive: 39.8 µM [inhibitor, partial curve, poor fit] |  |  |
| COCCOc1ccc2c(n1)CCN(C(=O)c1ccc(OC)nc1OC)C2 |  | inactive: -9.57% |  |

| Structure (SMILES) | Potency | activity change, negative = cytotoxicity | outcome |
| --- | --- | --- | --- |
| CC(C)NC(=O)c1nc2cccnc2n(C2CCCC2)c1=O | inconclusive: 89.1 µM [inhibitor, partial curve, poor fit] |  |  |
| CNC(=O)C1CCCN(Cc2cccc(-c3cccs3)c2)C1 (stereo not given) |  | inactive: -28.8% [at 138 µM] |  |
| Cc1ccc(C2c3cc(OCc4nc(C(=O)NCC(C)C)co4)ccc3CCN2C(=O)C2CC2)cc1 (stereo not given) | inconclusive: 22.4 µM [inhibitor, full curve, poor fit] |  |  |
| N#Cc1ccc2nc(CO[C@H]3CN(Cc4ccccc4F)C[C@H]3F)[nH]c2c1 | inconclusive: 79.4 µM [inhibitor, partial curve] |  |  |
| CC(C)NC(=O)c1cc(-c2ccc(F)cc2)nc2c1cnn2C | inconclusive: 56.2 µM [inhibitor, partial curve, poor fit] |  |  |
| CCc1ccccc1S(=O)(=O)N1CCN(C2(CC)CCN(C(=O)C(C)C)C2)CC1 (stereo not given) |  | inactive: -24.7% |  |
| COc1ccc(NC(=O)C2CCN(c3cc(C(F)(F)F)ncn3)CC2)cc1 |  | inactive: -21.1% |  |
| Cc1nn2c(c1-c1cccc3cn[nH]c13)N(C(=O)Cc1ccccc1)CCC2 | active: 44.7 µM |  |  |
| CCOc1ccc2c(n1)CCN(C(=O)NC1CCCC1)C2 |  | inactive: -1.74% |  |
| CC(=O)N[C@@H]1CN(Cc2cccc(Br)c2)C[C@H]1CO |  | inactive: 2.77% |  |
| CC1CCC(Nc2ncncc2-c2nc(-c3ccccc3)no2)CC1 (stereo not given) |  | inactive: -3.14% |  |
| Cc1ccccc1-c1cccc(CCOc2cnc3c(ccn3CC(=O)O)c2)c1 |  | inactive: -13.7% [at 138 µM] |  |
| O=C(COc1ccc(F)cc1)N1CCCC(c2noc(COc3ccccc3F)n2)C1 (stereo not given) | inconclusive: 50.1 µM [inhibitor, partial curve, poor fit] |  |  |
| CN(C)c1nccnc1OC1CCN(C(=O)c2ccccc2)C1 (stereo not given) |  | inactive: -11.8% |  |
| COCC(=O)N1CCC(Oc2ccccc2C(=O)NCCc2ncccc2C)CC1 | inconclusive: 89.1 µM [inhibitor, partial curve, poor fit] |  |  |
| COc1cc2c(c(OC)c1OC)C(c1cc3c(cc1Cl)OCO3)CC(=O)N2 (stereo not given) | inconclusive: 89.1 µM [inhibitor, single point] |  |  |
| O=C(NC1CCN(c2cc(-c3ccccc3)[nH]n2)CC1)c1ccc2ccccc2n1 | active: 28.2 µM |  |  |
| CC(C)[S+](=O)([O-])N1CCC2(CC1)CC(c1cccc(C(F)(F)F)c1)=NO2 |  | inactive: -15.7% |  |
| C=CCOc1c(OC)ccc2c1CN(CCOC)C(=O)CCN2CC(O)COc1ccccc1 (stereo not given) |  | inactive: -26.5% |  |
| CCCC1CN(Cc2ccccc2)[S+](=O)([O-])c2cccnc2O1 (stereo not given) | inconclusive: 31.6 µM [inhibitor, partial curve, poor fit] |  |  |
| COc1ccc(CN2C(=O)CO[C@H]3CN(C(=O)NCc4ccccc4)C[C@H]32)cc1 |  | inactive: -9.24% [at 138 µM] |  |
| CCN1C(=O)CCc2cc(NC(=O)c3cc(F)cc(F)c3)ccc21 | inconclusive: 50.1 µM [inhibitor, single point] |  |  |
| C[C@H]1[C@@H]2[C@H]3OC(=O)[C@@H](C)[C@@H]3CC[C@@]2(C)CC[C@@H]1NC(=O)CC(C)(C)C |  | inactive: -19.4% [at 138 µM] |  |
| COCCC(=O)N1CCC(N2C(=O)C(OCC3CC3)C23CCOCC3)CC1 (stereo not given) |  |  | inactive |

| Structure (SMILES) | Potency | activity change, negative = cytotoxicity | outcome |
| --- | --- | --- | --- |
| C(=C\c1ccccc1)/CN1CCN(c2nccc(-c3cccnc3)n2)CC1 | inconclusive: 50.1 µM [inhibitor, partial curve, poor fit] |  |  |
| O=C(Nc1ccccc1)O[C@@H]1CO[C@H]2[C@@H]1OC[C@@H]2NC(=O)C1CC1 |  | inactive: -25.2% [at 174 µM] |  |
| CCn1cc(CN2CCCCCCNC(=O)[C@@H]3CCC[C@@H]32)c(C)n1 | inconclusive: 70.8 µM [inhibitor, partial curve, poor fit] |  |  |
| CCOc1cccc(CN2CC(Oc3ccccc3C(=O)N3CCOCC3)C2)c1 | inconclusive: 31.6 µM [inhibitor, full curve] |  |  |
| COc1ccccc1-c1ccc(C(=O)N2CCC(C(=O)NCCc3ccc(Cl)cc3)CC2)cc1 | active: 31.6 µM |  |  |
| CCCC(O)CN1CCC(=O)N(Cc2ccccc2)Cc2sccc21 (stereo not given) | inconclusive: 50.1 µM [inhibitor, single point] |  |  |
| CN1c2cc(C(=O)Nc3cccc(C(F)(F)F)c3)ccc2C(=O)N2CCCC21 (stereo not given) | inconclusive: 56.2 µM [inhibitor, single point] |  |  |
| COCC1CN(C2CCC2)CC12CCN(C(=O)c1ccccc1C)CC2 (stereo not given) | inconclusive: 50.1 µM [inhibitor, single point] |  |  |
| CCc1noc(-c2cccn3c(CNC(=O)c4cccc(F)c4)nnc23)n1 |  | inactive: -5.42% |  |
| Cc1nc2scc(CC(=O)N3CCCCC3)n2c(=O)c1-c1cc(C)n(-c2ccc(F)cc2)n1 |  | inactive: -9.19% |  |
| Cc1[nH]cnc1CN1CCc2nc(C(=O)NCCOc3ccccc3)oc2CC1 | inconclusive: 79.4 µM [inhibitor, partial curve, poor fit] |  |  |
| O=C(NCc1c[nH]c2ncccc12)c1ccc2c(c1)OCO2 |  | inactive: -11.7% [at 138 µM] |  |
| O=C(c1ccc(F)cc1)N1CCC(C(=O)N2CCCC2c2nc3ccncc3[nH]2)CC1 (stereo not given) |  | inactive: -8.58% |  |
| Cc1ccc(-c2nnc3ccc(N4CCN(Cc5ccccc5)CC4)nn23)nc1 | inconclusive: 63.1 µM [inhibitor, partial curve, poor fit] |  |  |
| Cc1nc(-c2c3n(c(=O)n(CC(=O)NCc4ccccc4)c2=O)CCCCC3)no1 | inconclusive: 70.8 µM [inhibitor, single point] |  |  |
| O=C(O)CSCC(=O)N[C@H]1C[C@H]2C(=O)Nc3ccc(-c4cccs4)cc3C(=O)N2C1 |  | inactive: -20% |  |
| O=C(c1ccccc1Cl)N1CCN(C(=O)c2nc3cccnc3n(C3CCCC3)c2=O)CC1 | inconclusive: 50.1 µM [inhibitor, partial curve, poor fit] |  |  |
| O=C(c1cccc(Cl)c1)N1CCC(C(=O)N2CCC(N3CCCC3=O)CC2)CC1 |  | inactive: -18.2% |  |
| Cc1ccc(-c2cccc(CN3CCCC3C(=O)NCC(C)C)c2)cc1Cl (stereo not given) | active: 35.5 µM |  |  |
| CNC(=O)[C@@H]1C[C@H](Oc2cccnc2)CN1C(=O)c1noc(C)c1Cc1c(C)noc1C |  | inactive: -8.88% |  |
| COc1cc(-c2ccnc3nc(-c4ccco4)nn23)cc(OC)c1OC | inconclusive: 70.8 µM [inhibitor, single point] |  |  |
| CCn1cc(-c2ccc(Cl)cc2)cc1C(=O)N1CCN(C(C)C)CC1 | active: 39.8 µM |  |  |
